Test results as given in article PMC4336329 (PLoS ONE, 2015).
Among all 310,000 compounds or so, about 2,200 (0.71%) showed an effect of 50% or more. Effects have a minus sign here. This is one part of the list.

Biological target: human ether-à-go-go-related gene (hERG) potassium channel (human, UniProt Q12809)
Experiment: primary screen, population patch clamp on CHO cells stably expressing hERG

Chain of human ether-à-go-go-related gene (hERG) potassium channel (Q12809 whole entry, looked up): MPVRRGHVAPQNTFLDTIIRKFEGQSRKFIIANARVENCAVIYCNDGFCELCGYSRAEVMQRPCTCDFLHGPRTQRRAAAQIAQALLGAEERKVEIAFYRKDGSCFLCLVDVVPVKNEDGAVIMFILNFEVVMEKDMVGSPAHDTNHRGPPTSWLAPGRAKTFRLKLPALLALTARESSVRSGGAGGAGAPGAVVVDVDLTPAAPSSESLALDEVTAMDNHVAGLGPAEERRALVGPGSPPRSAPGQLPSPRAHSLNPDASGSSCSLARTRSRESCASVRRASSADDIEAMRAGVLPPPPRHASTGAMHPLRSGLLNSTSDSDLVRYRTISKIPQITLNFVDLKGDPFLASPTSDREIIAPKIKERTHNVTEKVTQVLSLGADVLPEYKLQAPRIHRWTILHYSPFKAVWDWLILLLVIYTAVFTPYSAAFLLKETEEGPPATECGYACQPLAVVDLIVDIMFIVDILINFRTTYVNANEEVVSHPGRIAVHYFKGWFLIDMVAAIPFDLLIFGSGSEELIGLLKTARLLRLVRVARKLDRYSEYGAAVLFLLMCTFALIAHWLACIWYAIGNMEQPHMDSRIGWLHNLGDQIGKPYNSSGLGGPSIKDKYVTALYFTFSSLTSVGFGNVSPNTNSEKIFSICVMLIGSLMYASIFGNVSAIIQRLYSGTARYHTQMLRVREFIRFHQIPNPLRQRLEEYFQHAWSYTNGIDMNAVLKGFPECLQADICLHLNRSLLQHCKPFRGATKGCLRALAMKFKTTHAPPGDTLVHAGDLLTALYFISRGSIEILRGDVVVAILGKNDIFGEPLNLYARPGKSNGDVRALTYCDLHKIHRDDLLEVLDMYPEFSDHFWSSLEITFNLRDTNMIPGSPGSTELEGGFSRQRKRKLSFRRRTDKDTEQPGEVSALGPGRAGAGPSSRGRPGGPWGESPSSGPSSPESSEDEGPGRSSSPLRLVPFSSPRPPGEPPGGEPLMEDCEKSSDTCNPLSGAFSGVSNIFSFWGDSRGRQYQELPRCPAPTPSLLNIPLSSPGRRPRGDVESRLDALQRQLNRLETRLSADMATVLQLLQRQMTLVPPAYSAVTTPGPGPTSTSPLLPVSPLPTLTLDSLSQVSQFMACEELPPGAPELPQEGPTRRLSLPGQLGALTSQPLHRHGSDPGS

`CC(CCc1ccccc1)NC(=O)COC(=O)c1ccccc1O` (centres unmarked) and `CN(C)C(=O)Cn1cc(S(=O)(=O)Cc2ccccc2)c2ccccc21` are the same in “hERG current change (%, negative = inhibition) at 1uM” value: 10.6% for the first, 10.6% for the second.

Compared with `COc1ccc(/C=C/C(=O)c2cc3cccc(OC)c3oc2=O)cc1`, `COc1ccc(C(=O)/C=C/c2ccc(OC)c(COc3ccccc3F)c2)cc1` is lower in “hERG current change (%, negative = inhibition) at 1uM” value: 7.45% for the first, 6.63% for the second.

First: O=c1c2c(nc3cc(-c4ccccc4)[nH]n13)CCC2
Second: O=C(c1ccccc1-c1nc(-c2ccc(F)cc2)no1)N1CCCC1
The “hERG current change (%, negative = inhibition) at 1uM” value of the first is higher: 12.9% for the first, -0.0459% for the second.

First: COc1ccc(N(CC(=O)Nc2cc([N+](=O)[O-])ccc2C)S(C)(=O)=O)cc1OC
Second: COc1cccc(OCCCOc2ccc([N+](=O)[O-])cc2Cl)c1
The “hERG current change (%, negative = inhibition) at 1uM” value of the first is higher: 8.94% for the first, 6.9% for the second.

Going from `CCOc1ccc(NC(=O)N(CC(C)C)CC(C)C)cc1` to `Cc1ccc(OCC(=O)Nc2ccc3oc(=O)ccc3c2)cc1`, the “hERG current change (%, negative = inhibition) at 1uM” value falls from 10.1% to 8.99%.

Going from `CCOCCc1nn2c(=O)cc(CSCC(=O)Nc3ccc(OC)cc3)nc2s1` to `COc1ccc(NC(=O)N2c3ccccc3C(C)=CC2(C)C)cc1`, the “hERG current change (%, negative = inhibition) at 1uM” value falls from 17.5% to 11%.

Going from `O=C(C1=C(O)C(=O)N(Cc2ccco2)C1c1cccc(Cl)c1)c1ccco1` (centres unmarked) to `Cc1ccc2oc(C(=O)NCc3ccccc3)cc(=O)c2c1`, the “hERG current change (%, negative = inhibition) at 1uM” value rises from -0.392% to 11.4%.

First: O=C1CCc2cc(NS(=O)(=O)c3ccc(F)cc3)cc3c2N1CCC3
Second: Cc1cccc(NS(=O)(=O)c2ccc3c(c2)CCC(=O)N3)c1
The “hERG current change (%, negative = inhibition) at 1uM” value of the first is lower: 10.3% for the first, 10.6% for the second.

Compared with `CCCCSc1nnc2c(n1)OC=Nc1ccccc1-2`, `COCCNc1nnc(SCC(=O)Nc2nnc(-c3ccccc3)o2)s1` is higher in “hERG current change (%, negative = inhibition) at 1uM” value: 6.56% for the first, 20.7% for the second.

Going from `COc1ccc(CC(=O)NC2CCSc3ccccc32)c(OC)c1` (centres unmarked) to `COc1ccccc1CCCNC(=O)C1CCC(=O)N(CCc2ccc(Cl)cc2)C1` (centres unmarked), the “hERG current change (%, negative = inhibition) at 1uM” value falls from 9.66% to -3.88%.

First: Cc1cccc([C@@H]2[C@@H]3C(=O)N(Cc4ccccc4)C(=O)[C@@H]3[C@]3(Cc4ccc(Cl)cc4)C(=O)N(c4cccc(Br)c4)C(=O)N23)c1
Second: COc1cccc(CN2C(=O)[C@H]3Cc4c([nH]c5ccccc45)C(C)(C)N3C2=O)c1
The “hERG current change (%, negative = inhibition) at 1uM” value of the first is lower: 9.65% for the first, 15.2% for the second.

First: CCN(CC)C(=O)c1c[nH]c2ccc(S(=O)(=O)Nc3cc(C)cc(C)c3)cc2c1=O
Second: CCN(CC)C(=O)c1ccccc1NC(=O)c1ccccc1C
The “hERG current change (%, negative = inhibition) at 1uM” value of the first is lower: 8.26% for the first, 19.7% for the second.

First: CCCCc1c(O)nc(SCC(=O)N2CCOCC2)[nH]c1=O
Second: Cc1nc2ccccn2c1/C(O)=C1\C(=O)C(=O)N(CCN2CCOCC2)C1c1cccs1 (centres unmarked)
The “hERG current change (%, negative = inhibition) at 1uM” value of the first is higher: 4.6% for the first, -5.23% for the second.

First: Cc1cc(CN(C)C(=O)c2cc(COc3ccc(C)c(C)c3)on2)on1
Second: Cc1ccc(OCc2cc(C(=O)N(C)Cc3nccn3C)no2)cc1C
The “hERG current change (%, negative = inhibition) at 1uM” value of the first is higher: 17.3% for the first, 6.89% for the second.

Going from `CCCCOC(=O)C1=C(C)Nc2ncnn2C1c1cccc(OC)c1OC` (centres unmarked) to `CCCCN(C)Cc1c(C)[nH]c2ccc(Cl)cc2c1=O`, the “hERG current change (%, negative = inhibition) at 1uM” value falls from 8.7% to -6.49%.

Going from `C=CCOc1c(Br)cc(CNCCCN2CCOCC2)cc1OC.Cl` to `Cc1ccc(OCc2cc(C(=O)NCC(C)(C)N3CCOCC3)no2)cc1C`, the “hERG current change (%, negative = inhibition) at 1uM” value falls from 9.27% to 4.83%.

Compared with `Cc1cc(NC(=O)CN2CCN(C)CC2)no1`, `Cc1cc(N2CCOCC2)nc(N2CCOCC2)n1` is lower in “hERG current change (%, negative = inhibition) at 1uM” value: 13.5% for the first, 12.7% for the second.

Going from `Cc1ccc(CN2CCC(CNS(=O)(=O)c3ccc(-c4ccc(=O)[nH]n4)s3)CC2)cc1` to `Cc1ccc(CNS(=O)(=O)c2ccc3c(c2)N(C)CCO3)cc1`, the “hERG current change (%, negative = inhibition) at 1uM” value rises from -28.8% to 17.8%.

Compared with `Cc1ccc(N=Nc2c(N)[nH]n3c(=O)cc(C)nc23)cc1`, `Cc1cccc(N2C(=O)c3ccccc3C2=O)n1` is higher in “hERG current change (%, negative = inhibition) at 1uM” value: -9.23% for the first, 15% for the second.

Going from `c1ccc(Cc2nnc3sc(-c4cccnc4)nn23)cc1` to `O=C(CSc1nnc(-c2ccncc2)o1)Oc1ccccc1`, the “hERG current change (%, negative = inhibition) at 1uM” value rises from -12.8% to 15.1%.

Going from `Cc1nccn1CCc1nc(N)nc(N)n1` to `C=CCOc1ccc(Oc2cc(C)nc(SC)n2)nn1`, the “hERG current change (%, negative = inhibition) at 1uM” value falls from 11.4% to 10%.

First: O=C1c2ccccc2NC(c2ccc3c(c2)OCCO3)N1c1ccc2c(c1)OCCO2 (centres unmarked)
Second: O=C(Cc1cccc2ccccc12)Nc1ccc2c(c1)C(=O)NC2=O
The “hERG current change (%, negative = inhibition) at 1uM” value of the first is higher: 14.2% for the first, 8.61% for the second.

First: CCCOc1cccc(C(=O)Nc2cccc3ncccc23)c1
Second: Cc1ccc(C)c(NC(=O)CCOc2ccccc2)c1
The “hERG current change (%, negative = inhibition) at 1uM” value of the first is lower: 10.9% for the first, 13% for the second.

Compared with `Cn1nc(C(=O)Nc2cccc(S(N)(=O)=O)c2)c2ccccc2c1=O`, `CC(=O)c1cccc(NC(=O)C2COc3ccccc3O2)c1` (centres unmarked) is higher in “hERG current change (%, negative = inhibition) at 1uM” value: 8.69% for the first, 9.41% for the second.

Compared with `COc1cc(C(=O)NCCc2c[nH]c3ccccc23)ccc1OCc1c(C)noc1C`, `COc1ccc(CCN(C)Cc2ccc(OCc3ccccc3)c(OC)c2)cc1OC` is lower in “hERG current change (%, negative = inhibition) at 1uM” value: 5.8% for the first, -42.9% for the second.

Compared with `Nc1nc(SCC(=O)N2N=C3/C(=C/c4ccco4)CCCC3C2c2ccco2)n[nH]1` (centres unmarked), `Cn1c(SCc2ccon2)nc2ccccc2c1=O` is higher in “hERG current change (%, negative = inhibition) at 1uM” value: -5.91% for the first, 12.3% for the second.

Compared with `Cc1cc(Nc2cccc(C(F)(F)F)c2)n2nc(C)nc2n1`, `O=C(C[n+]1ccc(-c2cc(C(=O)Nc3cccc(C(F)(F)F)c3)c3ccccc3n2)cc1)c1cccc([N+](=O)[O-])c1.[Br-]` is higher in “hERG current change (%, negative = inhibition) at 1uM” value: -13.6% for the first, 7.93% for the second.

First: COC(=O)c1c(NC(=O)C2c3ccccc3Oc3ccccc32)sc(C)c1C
Second: CCOC(=O)/C=C/C(=O)Nc1ccccc1-c1ccccc1NC(=O)/C=C/C(=O)OCC
The “hERG current change (%, negative = inhibition) at 1uM” value of the first is lower: 11.8% for the first, 12.9% for the second.

Compared with `CC1=NN(c2ccccc2)C(=O)C1C(=O)c1ccc(Cl)cc1` (centres unmarked), `CCOc1ccccc1C(=O)N1CCN(c2cccc(Cl)c2)CC1` is lower in “hERG current change (%, negative = inhibition) at 1uM” value: 9.97% for the first, 4.05% for the second.

Going from `O=C(O)CN1CCc2ccccc2C1` to `COc1ccc(-c2nc(C#N)c(N3CCc4ccccc4C3)o2)cc1OC`, the “hERG current change (%, negative = inhibition) at 1uM” value falls from 12.4% to -2.91%.

Going from `CCc1cccc(C)c1NC(=O)CO/N=C(\N)CC(=O)NC1CCCCC1` to `CCC1CCCCN1Cc1nc(Cc2ccccc2Cl)no1` (centres unmarked), the “hERG current change (%, negative = inhibition) at 1uM” value falls from 10.9% to 4.88%.

First: CCC(C)[C@H]1CN=C(N)N1CCc1cccc2ccccc12 (some centres unmarked)
Second: Cc1nc(CCNC(=O)CC2C(=O)NCCN2Cc2ccccc2)sc1C (centres unmarked)
The “hERG current change (%, negative = inhibition) at 1uM” value of the first is higher: 11.7% for the first, 7.68% for the second.

Going from `COc1ccc(NCc2nnc(SCCN3CCCCC3)n2-c2ccc(C)cc2)cc1` to `O=C(NCc1nnc(SCc2ccccc2)n1-c1ccc(F)cc1)C12CC3CC(CC(C3)C1)C2`, the “hERG current change (%, negative = inhibition) at 1uM” value rises from -25% to 10.1%.

First: CC1=CC(=C2C(=O)c3ccccc3C2=O)C=C(C)O1
Second: CC(C)c1ccc(NC(=O)C[n+]2ccn(C3=C([O-])c4ccccc4C3=O)c2)cc1
The “hERG current change (%, negative = inhibition) at 1uM” value of the first is higher: 13.3% for the first, 11.2% for the second.

Compared with `O=C(NC(Oc1ccccc1)C(Cl)(Cl)Cl)c1ccccc1` (centres unmarked), `CC(C)Oc1ccc(C(=O)Nc2ccccc2N2CCCC2)cc1` is lower in “hERG current change (%, negative = inhibition) at 1uM” value: 17.3% for the first, 3.44% for the second.

Compared with `CC1CCCC(NC(=O)CSc2nnc(C(F)(F)F)n2C)C1C` (centres unmarked), `COc1ccc(S(=O)(=O)NC2(C(F)(F)F)N=C3SCCN3C2=O)cc1` (centres unmarked) is higher in “hERG current change (%, negative = inhibition) at 1uM” value: 9.23% for the first, 12.9% for the second.

First: CC(=O)Nc1cc(S(=O)(=O)C(F)(F)F)ccc1Cl
Second: Cc1ccccc1NC(=O)N1CCNC(=O)C1CC(=O)Nc1cc(Cl)ccc1Cl (centres unmarked)
The “hERG current change (%, negative = inhibition) at 1uM” value of the first is higher: 9.59% for the first, -0.886% for the second.

Going from `Cc1nonc1OCC(C)(COc1nonc1C)NC(=O)c1ccccc1` to `CC(C)(C)OC(=O)NCCCC[C@H](NC(=O)c1nc[nH]c1C(=O)NCc1ccccc1)C(=O)OC(C)(C)C`, the “hERG current change (%, negative = inhibition) at 1uM” value falls from 10.6% to 4.2%.

First: CCCS(=O)(=O)N1CCC(C(=O)N2CCN(Cc3ccccc3)CC2)CC1
Second: CCOC(=O)N1CCN(c2c(N3CCN(c4ccccc4OC)CC3)c(=O)c2=O)CC1
The “hERG current change (%, negative = inhibition) at 1uM” value of the first is higher: 5.77% for the first, 5.69% for the second.

Going from `Cc1nn(S(=O)(=O)c2ccc(Cl)cc2)c(C)c1Sc1ccc([N+](=O)[O-])cc1` to `CC(C)CN(C(=O)COC(=O)CSc1ccc([N+](=O)[O-])cc1)C1CCS(=O)(=O)C1` (centres unmarked), the “hERG current change (%, negative = inhibition) at 1uM” value falls from 9.27% to -22.8%.

Going from `CCOC(=O)c1cc2c(nc1N)CC(C)(CC)OC2` (centres unmarked) to `COc1ccc(N2CCN(S(=O)(=O)c3cc4c(cc3C)NC(=O)CO4)CC2)cc1`, the “hERG current change (%, negative = inhibition) at 1uM” value falls from 8.77% to 8.04%.

Going from `CCc1n[nH]c(CCN)n1.Cl` to `COc1cc2c(C(=O)NCCN(C)C)cn(CC(C)C)c(=O)c2cc1OC`, the “hERG current change (%, negative = inhibition) at 1uM” value falls from 14.8% to 12.2%.

First: O=C(c1ccc(Br)cc1)c1cc2ccc(O)cc2oc1=O
Second: CCN(CC)C(=O)c1ccc(NC(=O)c2ccc(N3CCCC3=O)cc2)cc1
The “hERG current change (%, negative = inhibition) at 1uM” value of the first is lower: 12.7% for the first, 12.8% for the second.

Going from `CC(C)(C)C(=O)/C=c1\[nH]c(=O)/c(=C\c2ccc(C#N)cc2)s1` to `O=[N+]([O-])c1cc(-n2cnnn2)c(O)c([N+](=O)[O-])c1`, the “hERG current change (%, negative = inhibition) at 1uM” value rises from 3.56% to 15.4%.

For `O=C(CCc1ccccc1)Nc1ccc(NS(=O)(=O)c2ccccc2)cc1`, the “hERG current change (%, negative = inhibition) at 1uM” value was 10.5%.
